Reference: US20190367516A1 (Bayer Pharma Aktiengesellschaft, priority 2015, published 2019)

Each molecule was assayed against T1, human M2 receptor (Homo sapiens, UniProt P08172). Conditions: read-out: Efficiency, M2-GIRK1/4 activation test; boosting of the acetylcholine effect at an EC20 acetylcholine concentration.
T1 sequence (P08172 1-466): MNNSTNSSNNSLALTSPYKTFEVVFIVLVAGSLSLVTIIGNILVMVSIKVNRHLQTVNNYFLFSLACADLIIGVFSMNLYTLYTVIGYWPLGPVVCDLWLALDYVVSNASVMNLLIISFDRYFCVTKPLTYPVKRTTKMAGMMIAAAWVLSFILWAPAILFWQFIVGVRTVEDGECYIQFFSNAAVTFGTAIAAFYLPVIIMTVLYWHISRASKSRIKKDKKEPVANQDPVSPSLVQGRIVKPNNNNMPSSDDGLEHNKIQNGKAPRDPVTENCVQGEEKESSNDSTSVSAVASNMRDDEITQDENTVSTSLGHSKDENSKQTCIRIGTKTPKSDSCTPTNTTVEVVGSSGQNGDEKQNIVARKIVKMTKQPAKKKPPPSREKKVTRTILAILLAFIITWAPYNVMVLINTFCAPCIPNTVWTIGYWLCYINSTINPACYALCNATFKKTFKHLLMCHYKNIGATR
Molecule `CCC(NC(=O)c1cn(-c2ccc(F)cc2F)c2nc(N(C)CCF)ccc2c1=O)C(F)(F)F` (racemic) [Example 104, rac-1-(2,4-Difluorophenyl)-7-[(2-fluoroethyl)(methyl)amino]-4-oxo-N-[1,1,1-trifluorobutan-2-yl]-1,4-dihydro-1,8-naphthyridine-3-carboxamide] has an Emax of 96%. In the case of `CC(NC(=O)c1cn(-c2ccc(F)cc2F)c2nc(N(C)CCF)ccc2c1=O)C(F)(F)F` (racemic) [Example 105, rac-1-(2,4-Difluorophenyl)-7-[(2-fluoroethyl)(methyl)amino]-4-oxo-N-[1,1,1-trifluoropropan-2-yl]-1,4-dihydro-1,8-naphthyridine-3-carboxamide], the Emax is reported as 97.7%. In the case of `CC(C)CC(NC(=O)c1cn(-c2ccc(F)cc2F)c2nc(N(C)CCF)ccc2c1=O)C(F)(F)F` (racemic) [Example 107, rac-1-(2,4-Difluorophenyl)-7-[(2-fluoroethyl)(methyl)amino]-4-oxo-N-[1,1,1-trifluoro-4-methylpentan-2-yl]-1,4-dihydro-1,8-naphthyridine-3-carboxamide], the Emax is reported as 91.8%. `CC(NC(=O)c1cn(-c2ccc(F)cc2F)c2nc(N(C)CC(F)F)ccc2c1=O)C(F)(F)F` (racemic) [Example 113, rac-7-[(2,2-Difluoroethyl)(methyl)amino]-1-(2,4-difluorophenyl)-4-oxo-N-[1,1,1-trifluoropropan-2-yl]-1,4-dihydro-1,8-naphthyridine-3-carboxamide] was tested, and the Emax was 91%. `CCC(NC(=O)c1cn(-c2ccc(F)cc2F)c2nc(N(C)CC(F)F)ccc2c1=O)C(F)(F)F` (racemic) [Example 114, rac-7-[(2,2-Difluoroethyl)(methyl)amino]-1-(2,4-difluorophenyl)-4-oxo-N-[1,1,1-trifluorobutan-2-yl]-1,4-dihydro-1,8-naphthyridine-3-carboxamide] gave an Emax of 93.3%. In the case of `O=C(NC12CC3CC(CC(C3)C1)C2)c1cn(-c2ccc(F)cc2F)c2nc(N3CCOC(CO)C3)ccc2c1=O` (racemic) [Example 118, rac-1-(2,4-Difluorophenyl)-7-[2-(hydroxymethyl)morpholin-4-yl]-4-oxo-N-(tricyclo[3.3.1.1^3,7]dec-1-yl)-1,4-dihydro-1,8-naphthyridine-3-carboxamide], the Emax is reported as 91%. In the case of `CC1(O)CCCN(c2ccc3c(=O)c(C(=O)NC45CC6CC(CC(C6)C4)C5)cn(-c4ccc(F)cc4F)c3n2)C1` (racemic) [Example 119, rac-1-(2,4-Difluorophenyl)-7-(3-hydroxy-3-methylpiperidin-1-yl)-4-oxo-N-(tricyclo[3.3.1.1^3,7]dec-1-yl)-1,4-dihydro-1,8-naphthyridine-3-carboxamide], the Emax is reported as 94.3%. Molecule `CC(NC(=O)c1cn(-c2ccc(F)cc2F)c2nc(NCC(F)F)ccc2c1=O)C(F)(F)F` (racemic) [Example 121, rac-7-[(2,2-Difluoroethyl)amino]-1-(2,4-difluorophenyl)-4-oxo-N-[1,1,1-trifluoropropan-2-yl]-1,4-dihydro-1,8-naphthyridine-3-carboxamide] has an Emax of 88.3%. `CCC(NC(=O)c1cn(-c2ccc(F)cc2F)c2nc(NCC(F)F)ccc2c1=O)C(F)(F)F` (racemic) [Example 122, rac-7-[(2,2-Difluoroethyl)amino]-1-(2,4-difluorophenyl)-4-oxo-N-[1,1,1-trifluorobutan-2-yl]-1,4-dihydro-1,8-naphthyridine-3-carboxamide] was tested, and the Emax was 87.7%. Work on `CC(C)CC(NC(=O)c1cn(-c2ccc(F)cc2F)c2nc(NCC(F)F)ccc2c1=O)C(F)(F)F` (racemic) [Example 125, rac-7-[(2,2-Difluoroethyl)amino]-1-(2,4-difluorophenyl)-4-oxo-N-[1,1,1-trifluoro-4-methylpentan-2-yl]-1,4-dihydro-1,8-naphthyridine-3-carboxamide] yielded an Emax of 93%. With `O=C(NC12CC3CC(CC(C3)C1)C2)c1cn(-c2ccc(F)cc2F)c2nc(N3CCC[C@@H]3CO)ccc2c1=O` (racemic) [Example 127, rac-1-(2,4-Difluorophenyl)-7-[2-(hydroxymethyl)pyrrolidin-1-yl]-4-oxo-N-(tricyclo[3.3.1.1^3,7]dec-1-yl)-1,4-dihydro-1,8-naphthyridine-3-carboxamide] the Emax was 86.5%. `Cc1cccc(C(NC(=O)c2cn(-c3ccc(F)cc3F)c3nc(N(C)C)ccc3c2=O)C(F)(F)F)c1` (racemic) [Example 138, rac-1-(2,4-Difluorophenyl)-7-(dimethylamino)-4-oxo-N-[2,2,2-trifluoro-1-(3-methylphenyl)ethyl]-1,4-dihydro-1,8-naphthyridine-3-carboxamide] showed an Emax of 100%. `CN(C)c1ccc2c(=O)c(C(=O)NC(c3ccc(F)cc3)C(F)(F)F)cn(-c3ccc(F)cc3F)c2n1` (racemic) [Example 139, rac-1-(2,4-Difluorophenyl)-7-(dimethylamino)-4-oxo-N-[2,2,2-trifluoro-1-(4-fluorophenyl)ethyl]-1,4-dihydro-1,8-naphthyridine-3-carboxamide] gave an Emax of 100%. `CN(C)c1ccc2c(=O)c(C(=O)NC(c3cccc(F)c3)C(F)(F)F)cn(-c3ccc(F)cc3F)c2n1` (racemic) [Example 140, rac-1-(2,4-Difluorophenyl)-7-(dimethylamino)-4-oxo-N-[2,2,2-trifluoro-1-(3-fluorophenyl)ethyl]-1,4-dihydro-1,8-naphthyridine-3-carboxamide] gave an Emax of 99%. `Cc1ccc(C(NC(=O)c2cn(-c3ccc(F)cc3F)c3nc(N(C)C)ccc3c2=O)C(F)(F)F)cc1` (racemic) [Example 141, rac-1-(2,4-Difluorophenyl)-7-(dimethylamino)-4-oxo-N-[2,2,2-trifluoro-1-(4-methylphenyl)ethyl]-1,4-dihydro-1,8-naphthyridine-3-carboxamide] gave an Emax of 99.4%. `Cc1ccccc1C(NC(=O)c1cn(-c2ccc(F)cc2F)c2nc(N(C)C)ccc2c1=O)C(F)(F)F` (racemic) [Example 142, rac-1-(2,4-Difluorophenyl)-7-(dimethylamino)-4-oxo-N-[2,2,2-trifluoro-1-(2-methylphenyl)ethyl]-1,4-dihydro-1,8-naphthyridine-3-carboxamide] was tested, and the Emax was 100%. With `CN(C)c1ccc2c(=O)c(C(=O)NC(Cc3ccccc3)C(F)(F)F)cn(-c3ccc(F)cc3F)c2n1` (racemic) [Example 143, rac-1-(2,4-Difluorophenyl)-7-(dimethylamino)-4-oxo-N-(1,1,1-trifluoro-3-phenylpropan-2-yl)-1,4-dihydro-1,8-naphthyridine-3-carboxamide] the Emax was 95.5%. `CCCC(NC(=O)c1cn(-c2ccc(F)cc2F)c2nc(N(C)C)ccc2c1=O)C(F)(F)F` (racemic) [Example 144, rac-1-(2,4-Difluorophenyl)-7-(dimethylamino)-4-oxo-N-(1,1,1-trifluoropentan-2-yl)-1,4-dihydro-1,8-naphthyridine-3-carboxamide] gave an Emax of 92.7%. `CC(C)CC(NC(=O)c1cn(-c2ccc(F)cc2F)c2nc(N(C)C)ccc2c1=O)C(F)(F)F` (racemic) [Example 145, rac-1-(2,4-Difluorophenyl)-7-(dimethylamino)-4-oxo-N-(1,1,1-trifluoro-4-methylpentan-2-yl)-1,4-dihydro-1,8-naphthyridine-3-carboxamide] showed an Emax of 100%. `CCC(NC(=O)c1cn(-c2ccc(F)cc2F)c2nc(N(C)C)ccc2c1=O)C(F)(F)F` (racemic) [Example 146, rac-1-(2,4-Difluorophenyl)-7-(dimethylamino)-4-oxo-N-(1,1,1-trifluorobutan-2-yl)-1,4-dihydro-1,8-naphthyridine-3-carboxamide] showed an Emax of 95.8%. Molecule `CC(NC(=O)c1cn(-c2ccc(F)cc2F)c2nc(N(C)C)ccc2c1=O)C(F)(F)F` (racemic) [Example 147, rac-1-(2,4-Difluorophenyl)-7-(dimethylamino)-4-oxo-N-(1,1,1-trifluoropropan-2-yl)-1,4-dihydro-1,8-naphthyridine-3-carboxamide] has an Emax of 94.9%. `CN(C)c1ccc2c(=O)c(C(=O)NC(C3CC3)C(F)(F)F)cn(-c3ccc(F)cc3F)c2n1` (racemic) [Example 148, rac-N-(1-Cyclopropyl-2,2,2-trifluoroethyl)-1-(2,4-difluorophenyl)-7-(dimethylamino)-4-oxo-1,4-dihydro-1,8-naphthyridine-3-carboxamide] was tested, and the Emax was 94.9%. In the case of `CC(C)C(NC(=O)c1cn(-c2ccc(F)cc2F)c2nc(N(C)C)ccc2c1=O)C(F)(F)F` (racemic) [Example 150, rac-1-(2,4-Difluorophenyl)-7-(dimethylamino)-4-oxo-N-(1,1,1-trifluoro-3-methylbutan-2-yl)-1,4-dihydro-1,8-naphthyridine-3-carboxamide], the Emax is reported as 90.5%. `CC[C@@H](NC(=O)c1cn(-c2ccc(F)cc2F)c2nc(N3CCC(C)(O)C3=O)ccc2c1=O)C(F)(F)F` (mixture of isomers) [Example 194, 1-(2,4-Difluorophenyl)-7-[3-hydroxy-3-methyl-2-oxopyrrolidin-1-yl]-4-oxo-N-[(2R)-1,1,1-trifluorobutan-2-yl]-1,4-dihydro-1,8-naphthyridine-3-carboxamide] gave an Emax of 96%. `CC[C@@H](NC(=O)c1cn(-c2ccc(F)cc2F)c2nc(N3CCC(C)(OC)C3=O)ccc2c1=O)C(F)(F)F` (mixture of isomers) [Example 197, 1-(2,4-Difluorophenyl)-7-[3-methoxy-3-methyl-2-oxopyrrolidin-1-yl]-4-oxo-N-[(2R)-1,1,1-trifluorobutan-2-yl]-1,4-dihydro-1,8-naphthyridine-3-carboxamide] showed an Emax of 92%.
